{"source": "the supplement of paper PMC8728848", "binders": {"B1": {"name": "Blon2468mut (Bifidobacterium longum) (protein)", "chain": "MTFIKQMMPRYVASMTAGIVAAAMAATCAFAPVANADAVSPTQETIQSTGRHFMVYYRAWRDVTMKGVNTDLPDDNWISMYDIPYGVDVVNIFSYVPSGQEEQAQPFYDKLKSDYAPYLHSRGIKLVRGIDYTGVAVNGFRTFMKEQNKTESEATEADYDAYAKQVIDKYMISVGLDGLDIDMQAHPNDADVKISDNVIRALSKHIGPKSAKPDTTMFLYDTNGSYLNPFKNVAECFDYVAYQQYGSSSDRTARAAADYQPYIGNEFVPGLTFPEEGDMNNRWYDATEPYEESHFYQVASYVREHNLGGMFVYALDRDGRNYDEDLRRIVPSNLLWTKTAIAESEGMALDTAKTAANHYLDRMSLRQVIDDNAASADKARDMVGKAANLYETNKAVLGGDYGEGFSNTYDPTLEAGLLGIDISVLQQQIDKSSEIIGADTAESDAKTALRMARDAAIDGLTGKIYTADQVSAWSQALKAALDATVPVPTPDSTDQNGNRDKVTNHKVQGQPKQLSATGISTDIIVAVGVTLAIAGVALSLSRKLS"}}, "assay_in_all_cases": "glycan array binding signal (z-score within array); higher = stronger binding", "conditions_in_all_cases": "glycan notation: IUPAC condensed, linker removed", "key": {"[1]": {"molecular_target": "GalNAc(b1-4)GlcNAc(b1-2)Man(a1-3)[GalNAc(b1-4)GlcNAc(b1-2)Man(a1-6)]Man(b1-4)GlcNAc(b1-4)GlcNAc", "procedure,_shortened": "(§1)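 Glycan array binding is given as a within-array Z-score, which can be read as non-binding when negative. The arrays, 3228 of them, came from the Consortium for Functional Glycomics database and were retained only where the protein sequence was available. Z-scores were averaged across arrays of the same protein sequence at different concentrations or buffers and across linkers.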"}, "[2]": {"molecular_target": "GalNAc(b1-4)GlcNAc(b1-3)GalNAc(b1-4)GlcNAc", "procedure,_shortened": "as §1"}, "GalNAc(b1-4)GlcNAc6S": {"molecular_target": "GalNAc(b1-4)GlcNAc6S", "procedure,_shortened": "as §1"}, "GalNAc(b1-6)GalNAc": {"molecular_target": "GalNAc(b1-6)GalNAc", "procedure,_shortened": "as §1"}, "GalNAc3S(b1-4)GlcNAc": {"molecular_target": "GalNAc3S(b1-4)GlcNAc", "procedure,_shortened": "as §1"}, "GalNAc3S(b1-4)GlcNAc3S": {"molecular_target": "GalNAc3S(b1-4)GlcNAc3S", "procedure,_shortened": "as §1"}, "[3]": {"molecular_target": "GalNAc3S(b1-4)[Fuc(a1-3)]GlcNAc", "procedure,_shortened": "as §1"}, "GalNAc4S6S(b1-4)GlcNAc": {"molecular_target": "GalNAc4S6S(b1-4)GlcNAc", "procedure,_shortened": "as §1"}, "GalNAc6S(b1-4)GlcNAc": {"molecular_target": "GalNAc6S(b1-4)GlcNAc", "procedure,_shortened": "as §1"}, "Glc(a1-4)Glc": {"molecular_target": "Glc(a1-4)Glc", "procedure,_shortened": "as §1"}, "[4]": {"molecular_target": "Glc(a1-4)Glc(a1-4)Glc(a1-4)Glc", "procedure,_shortened": "as §1"}, "Glc(a1-6)Glc(a1-6)Glc": {"molecular_target": "Glc(a1-6)Glc(a1-6)Glc", "procedure,_shortened": "as §1"}, "[5]": {"molecular_target": "Glc(a1-6)Glc(a1-6)Glc(a1-6)Glc", "procedure,_shortened": "as §1"}, "Glc(b1-4)Glc": {"molecular_target": "Glc(b1-4)Glc", "procedure,_shortened": "as §1"}, "Glc(b1-6)Glc": {"molecular_target": "Glc(b1-6)Glc", "procedure,_shortened": "as §1"}, "GlcA(b1-3)Gal": {"molecular_target": "GlcA(b1-3)Gal", "procedure,_shortened": "as §1"}, "GlcA(b1-3)GlcNAc": {"molecular_target": "GlcA(b1-3)GlcNAc", "procedure,_shortened": "as §1"}, "GlcA(b1-6)Gal": {"molecular_target": "GlcA(b1-6)Gal", "procedure,_shortened": "as §1"}, "[6]": {"molecular_target": "GlcA3S(b1-3)Gal(b1-4)GlcNAc(b1-2)Man", "procedure,_shortened": "as §1"}, "[7]": {"molecular_target": "GlcA3S(b1-3)Gal(b1-4)GlcNAc(b1-3)Gal(b1-4)Glc", "procedure,_shortened": "as §1"}, "[8]": {"molecular_target": "GlcNAc(a1-3)Gal(b1-4)GlcNAc", "procedure,_shortened": "as §1"}, "[9]": {"molecular_target": "GlcNAc(a1-4)Gal(b1-3)GlcNAc", "procedure,_shortened": "as §1"}, "[10]": {"molecular_target": "GlcNAc(a1-4)Gal(b1-4)GalNAc", "procedure,_shortened": "as §1"}, "[11]": {"molecular_target": "GlcNAc(a1-4)Gal(b1-4)GlcNAc", "procedure,_shortened": "as §1"}, "[12]": {"molecular_target": "GlcNAc(a1-4)Gal(b1-4)GlcNAc(b1-3)Gal(b1-4)Glc", "procedure,_shortened": "as §1"}, "[13]": {"molecular_target": "GlcNAc(a1-4)Gal(b1-4)GlcNAc(b1-3)Gal(b1-4)GlcNAc", "procedure,_shortened": "as §1"}, "[14]": {"molecular_target": "GlcNAc(a1-4)Gal(b1-4)GlcNAc(b1-3)Gal(b1-4)GlcNAc(b1-3)Gal(b1-4)GlcNAc", "procedure,_shortened": "as §1"}, "[15]": {"molecular_target": "GlcNAc(a1-4)Gal(b1-4)GlcNAc(b1-3)Gal(b1-4)[Fuc(a1-3)]GlcNAc(b1-3)Gal(b1-4)[Fuc(a1-3)]GlcNAc", "procedure,_shortened": "as §1"}, "[16]": {"molecular_target": "GlcNAc(a1-6)Gal(b1-4)GlcNAc", "procedure,_shortened": "as §1"}, "[17]": {"molecular_target": "GlcNAc(b1-2)Gal(b1-3)GalNAc", "procedure,_shortened": "as §1"}}, "note": "The other results are listed elsewhere or left out.", "data": [{"binder": "B1", "values": [{"measurement": "glycan array binding signal (z-score)", "setting": "[1]", "result": -0.082}, {"measurement": "glycan array binding signal (z-score)", "setting": "[2]", "result": -0.069}, {"measurement": "glycan array binding signal (z-score)", "setting": "GalNAc(b1-4)GlcNAc6S", "result": -0.07}, {"measurement": "glycan array binding signal (z-score)", "setting": "GalNAc(b1-6)GalNAc", "result": -0.055}, {"measurement": "glycan array binding signal (z-score)", "setting": "GalNAc3S(b1-4)GlcNAc", "result": -0.043}, {"measurement": "glycan array binding signal (z-score)", "setting": "GalNAc3S(b1-4)GlcNAc3S", "result": -0.082}, {"measurement": "glycan array binding signal (z-score)", "setting": "[3]", "result": -0.097}, {"measurement": "glycan array binding signal (z-score)", "setting": "GalNAc4S6S(b1-4)GlcNAc", "result": -0.081}, {"measurement": "glycan array binding signal (z-score)", "setting": "GalNAc6S(b1-4)GlcNAc", "result": -0.055}, {"measurement": "glycan array binding signal (z-score)", "setting": "Glc(a1-4)Glc", "result": -0.069}, {"measurement": "glycan array binding signal (z-score)", "setting": "[4]", "result": -0.064}, {"measurement": "glycan array binding signal (z-score)", "setting": "Glc(a1-6)Glc(a1-6)Glc", "result": -0.096}, {"measurement": "glycan array binding signal (z-score)", "setting": "[5]", "result": -0.086}, {"measurement": "glycan array binding signal (z-score)", "setting": "Glc(b1-4)Glc", "result": -0.072}, {"measurement": "glycan array binding signal (z-score)", "setting": "Glc(b1-6)Glc", "result": -0.029}, {"measurement": "glycan array binding signal (z-score)", "setting": "GlcA(b1-3)Gal", "result": -0.037}, {"measurement": "glycan array binding signal (z-score)", "setting": "GlcA(b1-3)GlcNAc", "result": -0.085}, {"measurement": "glycan array binding signal (z-score)", "setting": "GlcA(b1-6)Gal", "result": -0.106}, {"measurement": "glycan array binding signal (z-score)", "setting": "[6]", "result": -0.046}, {"measurement": "glycan array binding signal (z-score)", "setting": "[7]", "result": -0.089}, {"measurement": "glycan array binding signal (z-score)", "setting": "[8]", "result": -0.064}, {"measurement": "glycan array binding signal (z-score)", "setting": "[9]", "result": -0.061}, {"measurement": "glycan array binding signal (z-score)", "setting": "[10]", "result": -0.094}, {"measurement": "glycan array binding signal (z-score)", "setting": "[11]", "result": -0.067}, {"measurement": "glycan array binding signal (z-score)", "setting": "[12]", "result": -0.074}, {"measurement": "glycan array binding signal (z-score)", "setting": "[13]", "result": -0.074}, {"measurement": "glycan array binding signal (z-score)", "setting": "[14]", "result": -0.074}, {"measurement": "glycan array binding signal (z-score)", "setting": "[15]", "result": -0.063}, {"measurement": "glycan array binding signal (z-score)", "setting": "[16]", "result": -0.051}, {"measurement": "glycan array binding signal (z-score)", "setting": "[17]", "result": -0.041}]}]}
